# In article PMC4336329 (PLoS ONE, 2015):
# The campaign covered roughly 310,000 compounds. About 2,200 (0.71%) showed an effect of 50% or more. Effects have a minus sign here. The list shows a part of the results.
# Target: human ether-à-go-go-related gene (hERG) potassium channel (human, UniProt Q12809)
# Assay: primary screen, population patch clamp on CHO cells stably expressing hERG
# Sequence of human ether-à-go-go-related gene (hERG) potassium channel (Q12809 whole entry, looked up): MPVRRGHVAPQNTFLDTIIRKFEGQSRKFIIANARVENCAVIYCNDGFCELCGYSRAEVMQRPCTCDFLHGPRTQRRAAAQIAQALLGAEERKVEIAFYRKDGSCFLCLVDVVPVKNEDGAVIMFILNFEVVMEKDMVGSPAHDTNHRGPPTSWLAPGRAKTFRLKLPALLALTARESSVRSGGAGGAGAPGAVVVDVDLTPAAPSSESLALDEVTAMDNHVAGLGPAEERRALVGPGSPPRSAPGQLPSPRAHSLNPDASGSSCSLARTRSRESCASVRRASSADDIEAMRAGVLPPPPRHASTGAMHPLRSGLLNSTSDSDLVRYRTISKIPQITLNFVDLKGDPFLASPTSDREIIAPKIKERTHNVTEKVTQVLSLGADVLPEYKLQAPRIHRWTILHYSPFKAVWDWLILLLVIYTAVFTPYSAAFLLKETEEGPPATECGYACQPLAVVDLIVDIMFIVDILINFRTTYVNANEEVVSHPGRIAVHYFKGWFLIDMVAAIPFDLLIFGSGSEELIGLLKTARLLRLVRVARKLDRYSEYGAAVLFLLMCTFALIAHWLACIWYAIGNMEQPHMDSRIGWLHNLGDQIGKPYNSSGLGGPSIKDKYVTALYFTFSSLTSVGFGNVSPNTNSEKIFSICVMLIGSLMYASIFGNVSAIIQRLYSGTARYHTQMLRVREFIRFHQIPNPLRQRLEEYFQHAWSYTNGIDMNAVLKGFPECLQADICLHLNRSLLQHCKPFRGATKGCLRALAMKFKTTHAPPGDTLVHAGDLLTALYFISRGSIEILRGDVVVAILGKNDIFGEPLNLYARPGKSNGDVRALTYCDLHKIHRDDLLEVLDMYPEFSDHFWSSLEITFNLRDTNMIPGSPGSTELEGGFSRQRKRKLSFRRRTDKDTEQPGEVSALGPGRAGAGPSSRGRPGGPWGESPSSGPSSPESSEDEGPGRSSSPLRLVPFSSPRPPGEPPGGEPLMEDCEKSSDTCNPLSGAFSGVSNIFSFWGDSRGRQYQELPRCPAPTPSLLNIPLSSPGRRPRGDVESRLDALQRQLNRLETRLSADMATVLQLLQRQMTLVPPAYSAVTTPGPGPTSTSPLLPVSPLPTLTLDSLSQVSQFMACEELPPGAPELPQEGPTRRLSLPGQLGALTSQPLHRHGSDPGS
row,SMILES,"hERG current change (%, negative = inhibition) at 1uM [%]"
1,CC1=C(C(=O)Nc2cc(C(=O)NCCCOC(C)C)ccc2C)SCCO1,11.8
2,CCOc1cc(C(=O)NCC(C)CN(C)C)cc(OCC)c1OCC (centres unmarked),10.2
3,CCOC(=O)C1CCCN(C(=O)C2CCN(S(=O)(=O)c3cccs3)CC2)C1 (centres unmarked),-11.3
4,COc1cccc(C(=O)NCCCNC(=O)c2cccnc2)c1,6.09
5,Brc1ccc(CSc2nnc(-c3ccccn3)n2Cc2ccco2)cc1,2.31
6,Cc1cccc(C(=O)NNC(=O)c2ccccc2Br)c1,10.6
7,CCOc1ccc(C(=O)NCC(=O)Nc2cc(C)ccn2)cc1OCC,9.69
8,Cc1cc(/C=C2\C(=O)NC(=O)N(c3cccc(F)c3)C2=O)c(C)n1-c1cc(C(=O)O)cc(C(=O)O)c1,18.1
9,Cc1nnc(NC(=O)c2cc3n(n2)C(C(F)(F)F)CC(C2CC2)N3)s1 (centres unmarked),9.46
10,CCC(=O)Nc1ccc(S(=O)(=O)N2CCc3ccccc32)cc1,1.9
11,CSc1ncccc1C(=O)Nc1ccncc1,15.5
12,CN1C(=O)c2ccccc2C(O)c2ccccc21 (centres unmarked),6.34
13,CC1(c2ccc(Cl)cc2)NC(=O)N(CC(=O)NCc2cccs2)C1=O (centres unmarked),7.48
14,CCCn1cnc2sc(CC)cc2c1=O,16.1
15,CCOc1ccc2nc(NC(=O)CSc3ccccc3)sc2c1,4.91
16,CCn1c(CC(=O)Nc2ccc(C)cc2)nnc1SCC(=O)Nc1nc(C)cs1,18
17,CCOc1ccccc1/C=N/Nc1cc(C)nc2ccc(C)cc12,15.7
18,CCOCCCNC(=O)C(C)NS(=O)(=O)c1ccc(C)cc1 (centres unmarked),7.82
19,Cc1cc(C)cc(OCC(=O)NNC(=O)CCC(=O)NCc2ccccc2)c1,14.2
20,NC(=S)Nc1cc(Cl)cc(Cl)c1,13.3
21,Cc1nn(Cc2ccccc2)c(C)c1C(=O)N1CCN(CC(=O)Nc2ccccc2Cl)CC1,-13.4
22,CCN(CC)CCn1c(=O)n(-c2ccc(Cl)cc2)c(=O)c2c3c(sc21)CN(C)CC3,1.4
23,COc1ccc(CC(=O)NC(C)c2nnc(SCC(=O)c3ccc(OC)cc3)n2C)cc1 (centres unmarked),4.87

row,SMILES,"hERG current change (%, negative = inhibition) at 1uM [%]"
1,O=C(c1ccc(F)cc1Cl)N1CCC2(CC1)OCCO2,18
2,O=C(NC1CCCC1)c1ccc(COCC(F)(F)F)o1,13.7
3,Cc1ccc(C(=O)NC(=S)Nc2ccc(-c3ccc(CO)o3)cc2)cc1,15.6
4,COCCCN1C(=O)C(O)=C(C(=O)c2ccc(C)o2)C1c1cccc(Br)c1 (centres unmarked),7.75
5,CN1C(=O)/C(=C2/C=CC=CN2C)OC1=S,1.15
6,COCC1CCCCN1C(=O)c1ccc(OC)c(OC2CCN(C(C)C)CC2)c1 (centres unmarked),15
7,Cl.Nc1ccc2c(c1)OC1(CCCC1)O2,30.3
8,O=C(O)CSc1nc2sc3c(c2c(=O)n1Cc1ccccc1)CCCCC3,14.4
9,Cc1cc(NC(=O)/C=C/c2ccccc2Cl)no1,14
10,CCCC(C)NC(=O)C1CC(=O)N(CCc2ccc(F)cc2)C1 (centres unmarked),6.95
11,N#Cc1ccsc1NC(=O)C1CC(=O)N(Cc2ccccc2)C1 (centres unmarked),0.752
12,CCN(CC)CCn1c2c(c(SCC(=O)Nc3ccc(C(C)C)cc3)nc1=O)CCCC2,-16.5
13,CC(=N\Nc1ccccc1)/C(=N/O)C(=O)Nc1ccccc1,7.01
14,O=C1c2cnc3nc(SCc4cccc(Cl)c4)nn3c2CC2c3ccccc3CCN12 (centres unmarked),8.92
15,Cc1ccnc(NS(=O)(=O)c2cccs2)c1,12.9
16,CC(=O)c1ccccc1OCCOCCOc1ccccc1C(C)=O,-0.791
17,O=C(O)CSc1nc2ccccc2s1,8.45
18,Cc1cc(C(=O)O)ccc1-n1c(C)cc(C=C2C(=O)c3ccccc3C2=O)c1C,7.4
19,CC1CN(C(=O)NCc2ccccc2)c2cc(Cl)ccc2O1 (centres unmarked),13.9
20,Clc1ccccc1/C=C/c1ccnc2ccccc12,5.08
21,CC(c1ccccc1)n1cncc1C(=O)O (centres unmarked),14.8
22,COC(=O)Oc1ccc(/C=N/NC(=O)CSCc2ccc(Cl)cc2)cc1OC,-13
23,COc1ccc(C(=O)NCc2nnc(SCC(=O)NO)n2Cc2ccccc2)cc1,-9.73

row,SMILES,"hERG current change (%, negative = inhibition) at 1uM [%]"
1,O=S(=O)(Nc1ccc(O)c(Sc2nc3ccccc3s2)c1)c1ccc(F)cc1,6.04
2,O=C(NCC(O)c1ccc([N+](=O)[O-])cc1)c1cccc(S(=O)(=O)N2CCCC2)c1 (centres unmarked),-18.6
3,CCN1CCN(c2ncnc3sc4c(c23)CCC(C)C4)CC1 (centres unmarked),7.63
4,CC(/C=C/c1ccccc1)=N\NC(=O)c1ccc2c(c1)OCCO2,5.5
5,CCOC(=O)CCNC(=O)N1CCCC(N(C)CCc2ccc(OC)c(OC)c2)C1 (centres unmarked),14.5
6,COc1ccc(NC(=O)/C=C/c2cc(OC)c(OC)c(OC)c2)cn1,8.12
7,CCCCCCCCC(NC(=O)c1ccc(C#N)cc1)C(=O)NCCC (centres unmarked),9.22
8,CC(C)(C)C(=O)C(Cc1ccccc1Cl)n1cncn1 (centres unmarked),9.01
9,CC1=C(C(=O)Nc2cc(-c3cccc(F)c3)[nH]n2)C2(CCCCC2)OC1=O,11.1
10,O=C(Nc1cccc(Cl)c1)N1CCC(CO)(CCOc2ccccc2)CC1,1.45
11,COc1ccc(N2CCN(C(=O)CCCn3nnnc3CN3CCOCC3)C(C)C2)cc1 (centres unmarked),4.32
12,CCOc1ccc(S(=O)(=O)N2CCCCC2)cc1NC(=O)CSCc1c(C)noc1C,0.116
13,Cc1cccc(C)c1N1CCN(C(=O)N2CCOCC2)CC1,11.7
14,O=C(O)c1ccc2c(c1)C(=O)N(c1ccc(C(=O)OCC(=O)c3ccccc3)cc1)C2=O,16.2
15,CC(=O)Nc1ccccc1C(=O)C(=O)Nc1ccccc1,10.5
16,CCCCN(C(=O)c1cc(OC)c(OC)c(OC)c1)C1=CC2CCC(C1)N2C.Cl (centres unmarked),8.68
17,CCN(CC(=O)NCc1ccccn1)S(=O)(=O)c1ccc(Cl)cc1,10.8
18,CCOc1cc2[nH]c(=O)n(CCC(=O)NCc3ccc(OC)cc3)c(=O)c2cc1OCC,4.98
19,COC(=O)c1ccc(N=C2SCC(=O)N2C)cc1,14.3
20,Cc1ccc(-n2nnnc2-c2cnn(-c3cccc(F)c3)c2C(F)(F)F)cc1,10.5
21,COC(=O)C1=C(C)N(Cc2ccc(C)cc2)C(=O)/C1=C\c1ccc(O)c(OC)c1,14.6
22,CCC(C)(C)NC(=O)C(c1cccc(OC)c1OC)N(Cc1ccccc1)C(=O)CCC(=O)Nc1cc(C)on1 (centres unmarked),5.61
23,Cc1cc(NC(=O)CCN2C(=O)c3ccccc3C2=O)no1,13.6

row,SMILES,"hERG current change (%, negative = inhibition) at 1uM [%]"
1,CC(C)=CCC(C)(C)C1OCCN1C(=O)c1ccccc1 (centres unmarked),6.09
2,CC(=O)Nc1ccc(C(=O)NCCc2ccccc2)cc1,19
3,CCOC(=O)CCCCC(=O)c1[nH]c(=O)[nH]c1C[n+]1ccccc1.[Cl-],12.9
4,COc1cccc(N2C(=O)NC(=O)/C(=C/c3ccc([N+](=O)[O-])s3)C2=O)c1,7.41
5,Cc1ccc(C(C)C)c(OCCCn2ccnc2C)c1.O=C(O)C(=O)O,-9.3
6,O=C(NNc1ccc([N+](=O)[O-])cc1)c1ccccc1Cl,3.18
7,O=C(O)c1cccc([N+](=O)[O-])c1C(=O)Nc1nc2ccccc2s1,25.3
8,CC(CNS(=O)(=O)c1ccc2c(c1)NC(=O)CCS2)c1ccccc1 (centres unmarked),14
9,CCC(=O)N1CCc2cc(S(=O)(=O)NC(C(=O)N3CCc4ccccc4C3)C(C)C)ccc21 (centres unmarked),-4.26
10,O=C(c1ccc(-c2ccccc2)cc1)N1CCN(c2ccccc2)CC1,14.2
11,COc1ccc(Br)cc1C(=O)NC(=S)Nc1c(C)n(C)n(-c2ccccc2)c1=O,18.6
12,O=C(N/N=C/C=C/c1ccccc1)c1cccnc1,2.91
13,O=C(CCN1C(=O)c2ccccc2C1=O)C1=NN[C@@H]2C(=O)N(c3cccc(Cl)c3)C(=O)[C@H]12,14.7
14,O=S(=O)(c1ccc(F)cc1)N1CCN(c2ncccn2)CC1,14
15,CC(=O)N1CCCc2cc(S(=O)(=O)N3CCCC(C(=O)N4CCN(c5ccccc5)CC4)C3)ccc21 (centres unmarked),8.52
16,CCCN(CCC)CCCNc1ccc2nnc(-c3ccc(F)cc3)n2n1,-28.7
17,CC1(C)CC(=O)C2=C(C1)N=c1s/c(=C/c3ccc(F)c(F)c3)c(=O)n1C2c1ccc(F)cc1 (centres unmarked),10.3
18,CCn1c(Cc2ccccc2)nnc1SCC(=O)Nc1ccc2c(c1)OCCO2,-2.99
19,CC1CCN(C(=O)c2[nH]cnc2C(=O)N[C@@H](C)c2ccccc2)CC1,8.83
20,O=S(=O)(Nc1ncnc2sc3c(c12)CCC3)c1ccc2ccccc2c1,7.64
